Consider 82 molecules from ChEMBL document CHEMBL1201862, “PubChem BioAssay data set” (2004).

The structures appear in SMILES notation.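 Five concentrations, 48 hours, 96-well plates. GI50 = concentration required for 50% inhibition of growth.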 Activity calls are given as the source filed them. Cut-off read from the data, not from the text of the source: active = GI50 up to about 1.1 µM and inactive = higher. Where only a bound is given, the exact number is not on record here.

This assay concerns NCI-H322M. Put plainly: growth of human tumour cells (NCI), 48 h.
For the molecule `O=C(O)CCC(NC(=O)c1ccccc1)C(=O)O` (configuration not stated), the GI50 is inactive: > 100 µM.

On to `O=NN(CCF)C(=O)NC1CC2CCC1C2` (configuration not stated), for which the GI50 is inactive: > 100 µM.

In the case of `O=S1(=O)CCN(Cc2ccccn2)CC1`, the GI50 is inactive: > 100 µM.

Regarding `OCc1c(-c2cccc3ccccc23)sc(-c2cccc3ccccc23)c1CO`, the GI50 was inactive: 15.3 µM.

Regarding `NC(=S)N/N=C/C(O[C@@H](/C=N/NC(N)=S)CO)n1cnc2c(N)ncnc21` (some centres not stated), the GI50 was inactive: > 75.3 µM.

With `FC(F)(F)c1cc(Cl)cnc1N/N=C(/c1ccccc1)c1ccccn1`, the GI50 is inactive: 2.95 µM.

Take `CN(C)CCNC(=O)c1cc(Cl)cc2cc3ccccc3nc12`: the GI50 is inactive: 1.13 µM.

For `COc1ccc2c(c1)C1C(CO2)C(c2ccccc2)=NN1c1ccccc1` (configuration not stated), the GI50 was inactive: > 100 µM.

On to `CCOC(=O)c1nc2ccc(C(F)(F)F)cc2nc1Oc1cc(OC)cc(OC)c1`, for which the GI50 was inactive: > 100 µM.

`Cn1c2cccc3nnc4cccc(c4c32)n1C`: the GI50 was inactive: > 100 µM.

For `COc1ccc(Cc2c(=O)[nH]nc3ccccc23)cc1`, the GI50 was inactive: > 100 µM.

Take `O=C1N=C2SC=C(NC(=S)Nc3ccccc3)N2NC12c1ccccc1-c1ccccc12`: the GI50 is inactive: > 10 µM.

In the case of `CC(C)(C)c1cc(C(C)(C)C)c2sc(=O)oc2c1O`, the GI50 was inactive: 16 µM.

Take `COc1cc2nc(-c3cccs3)nc(N3C(c4ccc(O)cc4)=NNC(=O)c4ccccc43)c2cc1OC`: the GI50 was inactive: 53.6 µM.

Regarding `CC(=O)Nc1ccc2nncnc2c1`, the GI50 was inactive: > 100 µM.

In the case of `N#CC1(C#N)[C@@H]2CCC=C(Sc3ccccc3)[C@@H]21`, the GI50 is inactive: 18.5 µM.

For `Nc1ccccc1OCc1cc(=O)c(OCc2ccccc2)co1`, the GI50 was inactive: 74.6 µM.

As for `COc1ccc(/C=N/n2c(-c3ccccc3)n[nH]c2=O)c(OC)c1`, the GI50 is inactive: 66.5 µM.

On to `CC(=O)Oc1cc(OC(C)=O)c2cc3c(cc2c1OC(C)=O)C(=O)C1(CCCC1)C3=O`, for which the GI50 was inactive: 17.1 µM.

Turning to `COc1ccc(S(=O)(=O)NNS(C)(=O)=O)cc1OC`, the GI50 was inactive: > 100 µM.

On to `Cc1ccc(O)c(-c2cscn2)c1`, for which the GI50 was inactive: 48.5 µM.

Regarding `CCCCN1C=CN2c3nc4cc(C)c(C)cc4n3C(C(=O)OC)=C(C(=O)OC)C12` (configuration not stated), the GI50 is inactive: > 100 µM.

Take `CN(C)C(=N)/N=C(\N)Nc1cccc(Cl)c1`: the GI50 is inactive: > 100 µM.

As for `CCN=C=NCCCN(C)C`, the GI50 was inactive: > 100 µM.

For the molecule `C=C1CC2(CCOc3ccc(Cl)cc32)OC1=O` (configuration not stated), the GI50 was inactive: 11.1 µM.

Take `CCOc1cc(CC[N+](C)(C)C)c2c(ccc3ccc(OC)c(OC)c32)c1OC`: the GI50 is inactive: > 100 µM.

For `CCOC(=O)C(=O)CC(=O)C1=C(c2ccccc2OC)CC(c2cccs2)=CC1=O`, the GI50 was inactive: 84.5 µM.

For the molecule `Cc1ccc(-c2cc(N)n(-c3nc4c(c(=O)n(C)c(=O)n4C)n3C)n2)cc1`, the GI50 is inactive: > 100 µM.

Consider `Nn1c(=S)[nH]nc(/C=C/c2c(O)ccc3ccccc23)c1=O`, for which the GI50 was inactive: 5.5 µM.

With `C=C1CC(O)C2C(=C)C(=O)OC2C2C(C)C(=O)CC12` (configuration not stated), the GI50 is inactive: 64.4 µM.

`O=C(O)c1ccc([C@@H]2C(=O)N(O)[C@@H]3C=CC[C@@H]32)cc1`: the GI50 was inactive: > 100 µM.

With `N=C(N)SCc1nc(-c2ccc(Cl)cc2)no1`, the GI50 was inactive: 26.5 µM.

`Cc1ccc(S(=O)(=O)N2C[C@@H]3CC[C@]4(CO[Si](C)(C)C(C)(C)C)N[C@@H](c5ccccc5)[C@H]2[C@H]34)cc1`: the GI50 was inactive: 39.4 µM.

For the molecule `Cc1ccc(NCCN(C)C)c2c(=O)c3cc(O)ccc3sc12`, the GI50 is inactive: 6.64 µM.

As to `[O-][S+]1c2ccccc2N=C(c2cccc3ccccc23)CC1c1cccc2ccccc12` (configuration not stated), the GI50 is inactive: 15.6 µM.

With `Cn1sc2ccccc2c1=S`, the GI50 is inactive: 20.5 µM.

As for `Sc1nnc(-c2ccccc2)n1/N=C\c1ccc(-c2ccc(Cl)cc2)o1`, the GI50 was inactive: > 100 µM.

As to `CC/C=C/c1cc2c(c3[nH]ccc13)[C@@H](C)CC2C.CC/C=C/c1cc2cc[nH]c2c2c1C(C)C[C@@H]2C.CCc1cc2c(c3[nH]ccc13)[C@@H](C)CC2C` (some centres not stated), the GI50 is inactive: 18.3 µM.

For `CC(NC(C#N)CC12CC3CC(CC(C3)C1)C2)c1ccccc1` (configuration not stated), the GI50 was inactive: > 100 µM.

In the case of `Cc1cccc(C)c1NC(=O)C(=O)Cc1nc2ccccc2s1`, the GI50 was inactive: > 100 µM.

As to `CCCCCC/C=C\CCCCCCCCCC1=C(CN2CCN(C)CC2)C(=O)C=C(OC)C1=O`, the GI50 was inactive: 14.5 µM.

For the molecule `COc1ccc(CC2C(=O)NC(C)C(=O)N(C)C3C(=O)N(C)C(Cc4ccc(O)c(c4)Oc4ccc(cc4)C3O)C(=O)NC(C)C(=O)NC(C)C(=O)N2C)cc1.COc1ccc(CC2C(=O)NC(C)C(=O)N(C)C3Cc4ccc(cc4)Oc4cc(ccc4O)CC(C(=O)NC(C)C(=O)NC(C)C(=O)N2C)N(C)C3=O)cc1` (configuration not stated), the GI50 is active: 0.00524 µM.

On to `O=C1NN=C2C=C(c3ccc(Cl)cc3)CC(c3cccc(Cl)c3)C12` (configuration not stated), for which the GI50 was inactive: 28.6 µM.

Take `CC(=O)NC1C(OCc2ccccc2)OC(CO)C(O)C1OCC(=O)NC(C)C(=O)NC(CCC(=O)OCCNC(=O)c1cccc2cc3ccccc3nc12)C(N)=O` (configuration not stated): the GI50 was inactive: 20.7 µM.

As for `COC1=C(OC)C(=O)C(Cc2c(Cl)nc3sccn23)=C(C)C1=O`, the GI50 was inactive: 15.7 µM.

Take `CC/C(C)=C1\CCC(CN2CCOCC2)C1=O` (configuration not stated): the GI50 was inactive: 67.1 µM.

On to `CC(=O)N1C(Nc2cccc3nc(C)ccc23)CCN1c1ccccc1` (configuration not stated), for which the GI50 was inactive: > 10 µM.

Consider `COc1ccccc1NC(=O)c1nc2ccc([N+](=O)[O-])cc2nc1C`, for which the GI50 was inactive: > 100 µM.

For the molecule `COc1cc(OC)c2nc(C)c3c(c2c1)NCC3`, the GI50 is inactive: 6.07 µM.

`Cn1c(=O)c2c(nc3n(Cc4ccccc4)c(=O)c(NCCCBr)cn23)n(C)c1=O`: the GI50 was inactive: > 100 µM.

On to `COc1cccc2c1CCc1sc(CN3CCN(C)CC3)nc1-2`, for which the GI50 is inactive: > 100 µM.

In the case of `BrC12c3ccccc3Sc3ccccc3C1(Br)c1ccccc12` (configuration not stated), the GI50 is inactive: 36.1 µM.

`COC(=O)/C=C/c1cc(O)c2c(c1)[C@H](C(=O)OC)[C@@H](c1ccc(O)c(O)c1)O2`: the GI50 is inactive: 7.96 µM.

On to `COC(=O)[C@@H](NC(=O)N(Cc1ccccc1)C[C@H](CC(C)C)NC(=O)[C@@H](NC(=O)OC(C)(C)C)C(C)C)C(C)C`, for which the GI50 was inactive: > 100 µM.

With `CCOP(=O)(OCC)C(Nc1ccc(Br)cc1)c1cccc([N+](=O)[O-])c1` (configuration not stated), the GI50 was inactive: 20.9 µM.

As for `CC1(C)CC2(C)CC1CC2(O)c1ccccc1` (configuration not stated), the GI50 is inactive: > 100 µM.

As to `CNc1nc(C(N)=O)c(N)s1`, the GI50 is inactive: > 100 µM.

Consider `O=C1[C@H](c2ccccc2)C2c3ccccc3CCN12` (some centres not stated), for which the GI50 was inactive: > 10 µM.

With `COC(=O)C(=O)C(CC(=O)Nc1cc(Cl)ccc1Cl)C(=O)OC` (configuration not stated), the GI50 was inactive: > 100 µM.

For the molecule `C=C1C(=O)OC2/C=C(/C)C3CC(O)C(C)(CC(OC(=O)/C(C)=C/C)C12)O3` (configuration not stated), the GI50 was inactive: 13.2 µM.

`Cc1nn(-c2ccccc2)c2nc(N3CCOCC3)nnc12`: the GI50 is inactive: 63.1 µM.

Take `C=C(Cl)C(=C)CCC(Cl)C(C)C` (configuration not stated): the GI50 was inactive: > 100 µM.

For the molecule `C=C1C(=O)O[C@H]2C1C[C@@H](OC(C)=O)/C(C)=C/CC[C@@]1(C)O[C@H]21` (some centres not stated), the GI50 was inactive: 19.8 µM.

As for `CCCCCCCc1cc(OC(=O)c2c(C)cc(OC)cc2O)cc(O)c1C(=O)O`, the GI50 was inactive: 18.1 µM.

On to `Cc1ccc(/C=N/Nc2ccc3ccccc3n2)s1`, for which the GI50 was inactive: 14.6 µM.

Consider `CC1CC2C(=O)NC(=O)C2c2[nH]c3ccccc3c21` (configuration not stated), for which the GI50 is inactive: > 100 µM.

For `CC(C)C1(O)C(c2ccccc2)=C(c2ccccc2)C(c2ccccc2)=C1c1ccccc1`, the GI50 is inactive: 5.56 µM.

Turning to `CC[C@@H](/C=C\CCC1(C[C@@H](N)CCC=C(C)C)OCCO1)O[Si](C(C)C)(C(C)C)C(C)C`, the GI50 is inactive: 17.5 µM.

For `Cn1c2c(c3c(=O)[nH]ncc31)CCCc1ccccc1-2`, the GI50 was inactive: 64.9 µM.

Take `Cc1ccsc1/C=N/Nc1ncccn1`: the GI50 was inactive: > 100 µM.

As for `CC(=O)OCc1ccc2oc(=O)c(C(=O)Oc3cccc(Cl)c3)cc2c1`, the GI50 was inactive: 22.2 µM.

With `COc1ccc(CN(O)C2C(CO)OC(n3cc(I)c(=O)[nH]c3=O)C2O)cc1` (configuration not stated), the GI50 is inactive: > 100 µM.

Consider `CCSc1c2ccccc2c(-c2nc(F)nc(F)n2)n1CCc1ccccc1`, for which the GI50 was inactive: > 100 µM.

`COc1cccc(/C=N/NC(N)=O)c1O`: the GI50 is inactive: > 100 µM.

For `OC1CCCCCCCCCCC1[S+]1CCCC1.O[B-](F)(F)F` (configuration not stated), the GI50 is inactive: > 100 µM.

As for `O=C1C=CC2(O)OCC3C=C4O[C@@H]5OC6(CCCCC6)O[C@@H]5C4[C@@H]2[C@@H]13` (some centres not stated), the GI50 is inactive: > 100 µM.

`COC(=O)[C@@H]1C(=O)O[C@@H](c2cc(OC)c(OC)cc2OC)[C@@H]1C(=O)OC.COC(=O)[C@H]1C(=O)O[C@@H](c2cc(OC)c(OC)cc2OC)[C@@H]1C(=O)OC`: the GI50 was inactive: > 100 µM.

In the case of `O=C1c2cccnc2-c2nccc3ccnc1c23`, the GI50 is inactive: 10.3 µM.

With `CC1(C)O[C@@H]2COC(=O)[C@@H]2O1`, the GI50 is inactive: > 100 µM.

Take `C[n+]1c(-c2ccc(/C=C/C=N\NC(=O)c3ccc(C(=O)N/N=C\C=C\c4ccc(-c5cn6ccccc6[n+]5C)cc4)cc3)cc2)cn2ccccc21`: the GI50 was inactive: > 64.6 µM.

Turning to `COC(=O)CCC(C)[C@H]1CCC2C3C(C[C@H](OC(C)=O)[C@@]21C)[C@@]1(C)CCC2(C[C@H]1C[C@H]3OC(C)=O)OOC1(CCCCCCC1)OO2` (some centres not stated), the GI50 is inactive: 47.2 µM.

As to `Cc1cc(S(=O)(=O)Nc2nc3ccccc3nc2-c2ccc(Cl)cc2)c(S)cc1Cl`, the GI50 is inactive: 17.3 µM.
